The other results are listed elsewhere or left out. Single values of this set are uncertain. Values with irradiation are relative to irradiated vehicle.
The molecules below were run on A549-Dual (assay: NF-kB reporter (SEAP) activity, viability-corrected, relative to vehicle (fold change vs vehicle); higher = more activation of STING-IRF / NF-kB immune response reporter). Conditions: 0.1 µM; irradiation: none.
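Further: viability correction based on the alamar blue assay, with concentrations leaving 10% survival or less dropped.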

Structure (SMILES) | NF-kB reporter
C=CC(=O)Nc1cc(Nc2nccc(-c3cn(C)c4ccccc34)n2)c(OC)cc1N(C)CCN(C)C [Osimertinib (AZD9291)] | 0.975
CC1CC2C3CCC4=CC(=O)C=CC4(C)C3(F)C(O)CC2(C)C1(O)C(=O)COP(=O)([O-])[O-].[Na+].[Na+] (stereo not given) [Dexamethasone Sodium Phosphate] | 0.88
O=C(O)CCCN1CCC(OC(c2ccc(Cl)cc2)c2ccccn2)CC1.O=S(=O)(O)c1ccccc1 (stereo not given) [Bepotastine Besilate] | 1.23
CC(=O)OC(C)C(C)C(=O)OCC12C3CC4(C)C(=CCC5C6(C)CCC(OC7OC(C(=O)[O][Na])C(OC8OC(CO)C(O)C(O)C8O)C(O)C7OC7OCC(O)C(O)C7O)C(C)(CO)C6CCC54C)C1CC(C)(C)C(O3)C2O (stereo not given) [Sodium Aescinate] | 1.35
Nc1nc(CC(=O)Nc2ccc(CCNCC(O)c3ccccc3)cc2)cs1 (stereo not given) [Mirabegron] | 1.01
O=C1OC(OC(=O)c2cccnc2Nc2cccc(C(F)(F)F)c2)c2ccccc21 (stereo not given) [Talniflumate] | 1.08
CN1C(C(=O)Nc2ccccn2)=C(O)c2sccc2S1(=O)=O [Tenoxicam] | 1.55
CCC(=O)NS(=O)(=O)c1ccc(-c2c(-c3ccccc3)noc2C)cc1 [Parecoxib] | 1.27
CNCC(O)C(O)C(O)C(O)CO.Cc1c(Nc2ncccc2C(=O)O)cccc1C(F)(F)F [Flunixin Meglumin] | 1.15
Cc1cncc(CN2CCC(=C3c4ccc(Cl)cc4CCc4cccnc43)CC2)c1.O=C(O)/C=C/C(=O)O [Rupatadine Fumarate] | 1.17

— the supplement of paper PMC9174493
